# Assay results reported in ChEMBL document CHEMBL4888484, “Replenishing the malaria drug discovery pipeline: Screening and hit evaluation of the MMV Hit Generation Library 1 (HGL1) against asexual blood stage Plasmodium falciparum ,using a nano luciferase reporter read-out” (2022).
# Where “and” joins values, the source holds several entries; their conditions need not be identical. Identical values can stand only once. Out of some 150,000 compounds screened, about 540 (0.36%) showed an effect of 50% or more. This is one part of the list.
# Test system: Plasmodium falciparum
# Test: Primary screen in NF54 nanoGlo assay, in single point, at 2uM, 72h; a lower Z score goes with more inhibition
# Assay type: functional, Erythrocyte
# Conditions: timepoint 72 hour
compound,measurement,setting,value
O=C(Nc1ccc(Cl)cc1C(=O)c1ccccc1F)c1cccc(S(=O)(=O)N2CCOCC2)c1,% Inhibition,,-1%
same,Z score,,0.24
CCCN1CC2(CCN(c3ncnc(C)c3C)CC2)C[C@H]1C(=O)O,% Inhibition,,-27%
same,Z score,,2.35
Cn1nc(CN2CCC[C@H](C#N)C2)c2c(Cl)cccc21,% Inhibition,,-12%
same,Z score,,1.14
O=C(Oc1ccc2c(c1)CCC2)N1CCOCC1,% Inhibition,,0%
same,Z score,,0.08
Cc1nc(CCN2CCOC3(CCCC3)C2)cs1,% Inhibition,,-3%
same,Z score,,0.44
OC[C@H]1CN2CCC[C@H]2CN1c1cc(C2CC2)nc(C2CC2)n1,% Inhibition,,7%
same,Z score,,-0.74
CN1CCC(O)(c2ccco2)C(C(=O)c2ccco2)C1 (stereo not given),% Inhibition,,-8%
same,Z score,,1.05
CN1CCCN(C(=O)Cc2cccn2-c2ccc(F)cc2)CC1,% Inhibition,,-3%
same,Z score,,0.44
c1ccc2c(C[C@H]3CCCNC3)c[nH]c2c1,% Inhibition,,-6%
same,Z score,,0.84
O=c1oc2cccnc2n1CCNC1CCCC1c1ccccc1C(F)(F)F (stereo not given),% Inhibition,,18%
same,Z score,,-1.88
CS(=O)(=O)c1cnn2cc(CN3CCC[C@@]4(CCOC4)C3)cnc12,% Inhibition,,-5%
same,Z score,,0.77
CCC(C)C1N=C(c2ccccc2)c2cc(Cl)ccc2N(CC(=O)Nc2ccc(F)c(Cl)c2)C1=O (stereo not given),% Inhibition,,-3%
same,Z score,,0.45
COc1ccc(-c2cc(C(=O)N3CCC4(CC3)OCCO4)n3nc(-c4ccccc4)cc3n2)cc1,% Inhibition,,-10%
same,Z score,,1.3
CCC1CCC(N(CCO)CCO)CC1 (stereo not given),% Inhibition,,0%
same,Z score,,0.04
CC1CN2c3ccccc3CC3(C(=O)NC(=O)N(C(C)(C)C)C3=O)C2C(C)O1 (stereo not given),% Inhibition,2 µM,2% and -4%
C=C1[C@H]2C[C@@]3([C@@H]1O)[C@@H](CC2=O)[C@@]12C4[C@@H]3C[C@@H]1[C@@](C)(CC[C@@H]2O)C[N+]4([O-])CC (stereo not given in full),% Inhibition,,0%
same,Z score,,0
CCN1CCN(c2nncc3ccccc23)CC1,% Inhibition,,13%
same,Z score,,-1.16
CCc1nc(CN2[C@@H]3CC[C@H]2C[C@@H](O)C3)n[nH]1,% Inhibition,,-20%
same,Z score,,2.41
O=C(c1ccncc1)N1C[C@H](c2ccccc2)[C@@H]2[C@H]1C1CCN2CC1,% Inhibition,,-6%
same,Z score,,0.82
CC(C)C[C@H](CNC(=O)c1cccc(-c2cnco2)c1)CC(=O)O,% Inhibition,,-2%
same,Z score,,0.24
CCc1onc(C)c1CN[C@](C)(CO)Cc1ccc(Cl)cc1,% Inhibition,,-10%
same,Z score,,1.07
CCc1nsc(N2CCC[C@@H]2CF)n1,% Inhibition,,-7%
same,Z score,,0.86
O=C(NCc1ccc(N2CCNCC2)c(F)c1)[C@H]1CC1(Cl)Cl,% Inhibition,,-3%
same,Z score,,0.36
Clc1cnccc1CN[C@H]1C[C@H](N2CCOCC2)C12CCC2,% Inhibition,,-8%
same,Z score,,1.24
O=C(c1cnccn1)N1C[C@@H](c2cccc(O)c2)[C@@H]2[C@H]1C1CCN2CC1,% Inhibition,,1%
same,Z score,,-0.1
O=C1CO[C@H]2CN(Cc3ccccc3)C[C@H]2N1Cc1cccnc1,% Inhibition,,13%
same,Z score,,-1.52
Cc1cccc(=O)n1C[C@](C)(O)C(=O)Nc1nc(C2CC2)cs1,% Inhibition,,-8%
same,Z score,,0.93
CCCNc1ncc(CN2C[C@H]3c4ccccc4OC[C@@]3(C(=O)O)C2)cn1,% Inhibition,,-1%
same,Z score,,0.11
CC(C#N)CNC(=O)NC(C)Cc1ccc(F)c(Br)c1 (stereo not given),% Inhibition,,-3%
same,Z score,,0.63
C[C@@H](Cn1cccn1)NCC(=O)Nc1cccc(Br)c1,% Inhibition,,-11%
same,Z score,,1.1
COC(=O)c1cc(Cl)cc(NC(=O)CC2CC3CCC(C2)N3)c1 (stereo not given),% Inhibition,,0%
same,Z score,,-0.04
O=C(NC1CCCCC1)N1C[C@@H]2C[C@H](C1)c1c(-c3ccccc3F)ccc(=O)n1C2,% Inhibition,,40%
same,Z score,,-4.57
CN1C[C@@H]2CN(C(=O)Nc3cccnc3OCC(F)F)C[C@]2(C)C1,% Inhibition,,0%
same,Z score,,0.08
COc1ccc(-c2c(C(=O)O)nnn2Cc2cccc(F)c2)cc1,% Inhibition,,-18%
same,Z score,,1.98
O=C(c1cccc2[nH]c(=O)oc12)N1CCOCC(F)(F)C1,% Inhibition,,-1%
same,Z score,,0.12
c1cc(-c2ccc3c(c2)CNCC3)cc(-n2cccn2)c1,% Inhibition,,-3%
same,Z score,,0.43
CN(Cc1ccc(Cl)cc1)C[C@H](O)c1ccc(F)cc1,% Inhibition,,1%
same,Z score,,-0.16
O=C(c1ccc(Cl)cc1)[C@H]1CCCN(C2CCC2)C1,% Inhibition,,-15%
same,Z score,,1.99
Cc1nc(-c2ccccc2Br)cc([C@H]2CN3CC[C@H]2C[C@@H]3CNC(=O)c2ccc(C(C)(C)C)cc2)n1,% Inhibition,,12%
same,Z score,,-1.35
O=C(NCc1cccnc1)[C@H]1[C@@H]2CN(C/C=C/c3ccco3)C[C@@H]21,% Inhibition,,-5%
same,Z score,,0.97
CCC(CC)n1nc(C(=O)[C@H](C#N)C(=O)NC)cc1C,% Inhibition,,17%
same,Z score,,-2.02
Cc1ccc(CC(=O)N2CCN(Cc3ccc(Cl)s3)CC2)cn1,% Inhibition,,-12%
same,Z score,,1.53
CC1OCCC1NC1(c2ccccc2F)CC1 (stereo not given),% Inhibition,,-7%
same,Z score,,0.95
CCC(=O)c1c(O)n(C2CCCCCC2)c(=O)[nH]c1=O,% Inhibition,2 µM,-11% and -9%
same,Z score,2 µM,1.37 and 1.48
CN1CCC2CCN(C(=O)c3cc(C4CC4)on3)C2C1 (stereo not given),% Inhibition,,36%
same,Z score,,-1.16
CN1CCN(c2ncnc3[nH]ccc23)CC12CCCCC2,% Inhibition,,3%
same,Z score,,-0.63
CN(C)C(=O)c1ccc(N2CC[C@H]3CC[C@@H](C2)N3C)nc1,% Inhibition,,-4%
same,Z score,,0.7
CC[C@@H](C(=O)N(C)c1ncccc1F)N1CCCC1=O,% Inhibition,,-3%
same,Z score,,0.52
O=C(NC1CCCCC1)N1[C@H]2CC[C@@H]1c1cncnc1C2,% Inhibition,,-12%
same,Z score,,1.66
COCc1nn(CCCN2CCOC2=O)c(=O)o1,% Inhibition,,-5%
same,Z score,,0.43
O=C(CN1[C@@H]2CC[C@H]1C[C@@H](O)C2)Nc1ccc(Cl)cn1,% Inhibition,,-8%
same,Z score,,1.05
OC1C2CCCC1CN(Cc1ccncc1)C2 (stereo not given),% Inhibition,,-12%
same,Z score,,1.89
C[C@H](NC(=O)N1CCN(c2ccc(Cl)c(Cl)c2)CC1)C(=O)N1CCC(=O)CC1,% Inhibition,,2%
same,Z score,,-0.3
CCn1cc(CNc2ncncc2C)c(=O)[nH]c1=O,% Inhibition,,-5%
same,Z score,,0.79
CCc1ccc(S(=O)(=O)Nc2ccc3[nH]c(=O)oc3c2)cc1,% Inhibition,,10%
same,Z score,,-1.8
COc1ccc(-n2c(-c3cccc4ccccc34)nc3ccccc3c2=O)cc1,% Inhibition,,1%
same,Z score,,-0.12
O=C(Cc1cccc(Cl)c1)N1C[C@@H]2CC[C@H]1CN(Cc1ccccn1)C2,% Inhibition,,-8%
same,Z score,,1
CCC[C@H](C)C(=O)Nc1ccc2[nH]cc(CCN(CCC)CC3CC3)c2c1,% Inhibition,,-8%
same,Z score,,0.89
COCCn1cncc1Cn1c(=O)cnc2ccccc21,% Inhibition,,0%
same,Z score,,0.05
Cc1cc(C(=O)N2C[C@H](c3cc(F)cc(F)c3)[C@@H]3[C@H]2C2CCN3CC2)[nH]n1,% Inhibition,,-7%
same,Z score,,1.11
Cc1cc(=O)c(C(=O)NCCc2ccccn2)c(CCc2ccccc2)n1C[C@H]1CCCO1,% Inhibition,,-20%
same,Z score,,2.6
CC(Cc1ccc(O)cc1)NC(C)c1nccn1C (stereo not given),% Inhibition,,-17%
same,Z score,,2.64
CC(C)N1C2CCC1CN(C(=O)CCc1cccnc1)CC2 (stereo not given),% Inhibition,,-3%
same,Z score,,0.54
NCCc1c[nH]c2cc(OCc3ccccc3)ccc12,% Inhibition,,-4%
same,Z score,,0.52
Cc1ccc(C)n1-c1c(C(=O)N2CCC3(CC2)OCCO3)sc2ncccc12,% Inhibition,,-25%
same,Z score,,2.33
c1ccc(COCCCc2nc([C@@H]3CN4CCN3CC4)no2)cc1,% Inhibition,,-6%
same,Z score,,1.18
COc1ccc2c(CC(=O)N3CC[C@H](N4CCN(C(C)C)CC4)C3)coc2c1C,% Inhibition,,7%
same,Z score,,-1.25
CCN(CC)C(=O)Oc1ccc2c(ccn2Cc2ccc(C)cc2)c1-c1cc(Cl)cc(Cl)c1,% Inhibition,,-11%
same,Z score,,1.5
C1=CC[C@@H](CN2CCCC3(C2)OCCO3)CC1,% Inhibition,,-6%
same,Z score,,0.9
CN1CCC[C@@]2(CCN(C(=O)Nc3cc4c(nn3)CCC4)C2)C1,% Inhibition,,-10%
same,Z score,,0.98
CCOCC(=O)N1[C@@H]2CC[C@H]1Cc1nc(-c3ccccc3)[nH]c(=O)c1C2,% Inhibition,,-20%
same,Z score,,2.95
O=c1n(CCN2CCOC3CCCCC32)nc2ccccn12 (stereo not given),% Inhibition,,-7%
same,Z score,,1.39
CC(C)(C)N1C(=O)NC(=O)[C@]2(Cc3ccccc3N3CCOC[C@H]32)C1=O,% Inhibition,,-10%
same,Z score,,1.62
CCn1cc(CN2CC(C(=O)c3ccc(F)cc3)C2)cn1,% Inhibition,,-10%
same,Z score,,1.87
CN1CCC[C@@]12CCN(Cc1ccc(OCC(F)(F)F)nc1)C2,% Inhibition,,-3%
same,Z score,,0.36
Cc1c(C)[n+]([O-])c([C@@H](CC(C)C)C2C(=O)N(C)C(=O)N(C)C2=O)n1Cc1ccccc1,% Inhibition,,-1%
same,Z score,,0.07
CC(Cn1cncn1)NC1CCc2c(F)ccc(Br)c21 (stereo not given),% Inhibition,,-13%
same,Z score,,1.43
O=C(Cc1cccc(F)c1)N1CC(N(Cc2ccccc2)C2CCOCC2)C1,% Inhibition,,5%
same,Z score,,-0.98
CCN(CC)C(=O)c1ccc(N(C)S(C)(=O)=O)c(C)c1,% Inhibition,,-10%
same,Z score,,1.92
COc1cccc(C2CCN(Cc3nc(N(C)C)no3)CC2)c1F,% Inhibition,,-2%
same,Z score,,0.29
COc1ccc(-c2n[nH]c3c2C2(C(=O)O)CC(N3)c3cc(Cl)ccc3O2)cc1 (stereo not given),% Inhibition,,33%
same,Z score,,-3.73
CN1C(=O)C([C@H]2c3ccccc3C(=O)N2Cc2ccccc2)C(=O)N(C)C1=O,% Inhibition,,-4%
same,Z score,,0.4
Clc1ccc([C@H]2CCCCNC2)cc1,% Inhibition,,-6%
same,Z score,,1.15
